# According to PubChem BioAssay AID198 (DTP/NCI, 2004):
# Inconclusive results and toxic doses are left out. Some entries of the source have several records that differ or are many. Only these are listed. There may be further records. The values listed for one entry are repeated measurements in other runs, samples, wells, individuals or studies.
# Test system: B16 melanoma ip, C57BL/6 mice, median survival T/C
# Assay: NCI In Vivo Anticancer Drug Screen. Data for tumor model B16 Melanoma (intraperitoneal) in C57BL/6 mice
# Conditions: endpoint: median survival time, schedule: Q01DX009 (ip), vehicle: saline, higher = longer survival
# Procedure: The antitumor activity of compounds was measured in mice bearing transplantable tumors. Survival or tumor size were measured and the results are expressed as the measurement made in the treated group (T) divided by the measurement made in the vehicle treated control group (C). The tumor model used in this assay is B16 Melanoma (intraperitoneal) in C57BL/6 mice
smiles,measurement,setting,value
NC(Cc1ccc(N(CCCl)CCCl)cc1)C(=O)O (stereo not drawn),T/C,dose: 8.0 mg/kg/injection,"118 % of control, 250 % of control, 378 % of control"
O=NN(CCCl)C(=O)NCCCl,T/C,dose: 3.75 mg/kg/injection,121 % of control and 170 % of control
O=c1[nH]cc(N(CCCl)CCCl)c(=O)[nH]1,T/C,dose: 0.75 mg/kg/injection,112 % of control and 178 % of control
